Where a name gives a salt, the structure may show the parent alone. The list shows a part of the results. Repeats are few or missing, and single values can be far off.

The source of these data is the supplement of paper PMC8047034.

The subject of assay [1] is OVCAR4. Description: log2 surviving fraction (library drug vs vehicle, or drug + carboplatin vs carboplatin alone; relative to plate median); ovarian cancer lines: OVCAR4 is platinum-sensitive and Ov4Carbo platinum-resistant; higher = more cell survival. The note with it: library drug concentration 10 µM, 7 days.
Assay [2] has as its system Ov4Carbo. The assay is described as above. The note with it: library drug concentration 10 µM, 7 days.

`N=C(N)NC(=N)NCCc1ccccc1` [Phenformin hydrochloride]: the log2 surviving fraction in assay [1] (carboplatin co-treatment 0 µM) was -0.672; in assay [1] (carboplatin co-treatment 5 µM), -0.336; in assay [2] (carboplatin co-treatment 0 µM) it was -0.923; in assay [2] (carboplatin co-treatment 5 µM), -0.0141.

Take `COc1ncnc(NS(=O)(=O)c2ccc(N)cc2)c1OC` [Sulfadoxine (Sulphadoxine)]: the log2 surviving fraction in assay [1] (carboplatin co-treatment 0 µM) is 0.000115; in assay [1] (carboplatin co-treatment 5 µM) it was 0.335; in assay [2] (carboplatin co-treatment 0 µM), 0.618; in assay [2] (carboplatin co-treatment 5 µM), -0.0721.

With `O=C(N/N=C/c1ccc([N+](=O)[O-])o1)c1ccc(O)cc1` [Nifuroxazide], the log2 surviving fraction is -0.157 in assay [1] (carboplatin co-treatment 0 µM), -0.704 in assay [1] (carboplatin co-treatment 5 µM), -1.23 in assay [2] (carboplatin co-treatment 0 µM) and -1.87 in assay [2] (carboplatin co-treatment 5 µM).

Take `CNS(=O)(=O)Cc1ccc2[nH]cc(CCN(C)C)c2c1` [Sumatriptan succinate]: the log2 surviving fraction in assay [1] (carboplatin co-treatment 0 µM) was determined as 1.69; in assay [1] (carboplatin co-treatment 5 µM) it was 1.56; in assay [2] (carboplatin co-treatment 0 µM), 1.55; in assay [2] (carboplatin co-treatment 5 µM), 0.697.

`CN1CC2c3ccccc3Oc3ccc(Cl)cc3C2C1` (stereo not given) [Asenapine]: the log2 surviving fraction in assay [1] (carboplatin co-treatment 0 µM) is -0.0943; in assay [1] (carboplatin co-treatment 5 µM), -2.41; in assay [2] (carboplatin co-treatment 0 µM), -1.01; in assay [2] (carboplatin co-treatment 5 µM) it was -0.541.

`CN(C)c1nc(N(C)C)nc(N(C)C)n1` [Altretamine (Hexalen)]: the log2 surviving fraction in assay [1] (carboplatin co-treatment 0 µM) was -1.16; in assay [1] (carboplatin co-treatment 5 µM) it was 0.407; in assay [2] (carboplatin co-treatment 0 µM), -0.0282; in assay [2] (carboplatin co-treatment 5 µM), 0.165.

Regarding `CCc1cc(C(N)=S)ccn1` [Ethionamide], the log2 surviving fraction in assay [1] (carboplatin co-treatment 0 µM) was 0.0598; in assay [1] (carboplatin co-treatment 5 µM), -0.442; in assay [2] (carboplatin co-treatment 0 µM), 0.0266; in assay [2] (carboplatin co-treatment 5 µM), -0.146.

In the case of `CC(C)/N=c1\cc2n(-c3ccc(Cl)cc3)c3ccccc3nc-2cc1Nc1ccc(Cl)cc1` [Clofazimine], the log2 surviving fraction in assay [1] (carboplatin co-treatment 0 µM) is -1.25; in assay [1] (carboplatin co-treatment 5 µM), -1.63; in assay [2] (carboplatin co-treatment 0 µM) it was -1.38; in assay [2] (carboplatin co-treatment 5 µM) it was -0.714.

`CCC(=O)O[C@]1(C(=O)SCF)[C@H](C)C[C@H]2[C@@H]3C[C@H](F)C4=CC(=O)C=C[C@]4(C)[C@@]3(F)[C@@H](O)C[C@@]21C` [Fluticasone propionate (Flonase, Veramyst)]: the log2 surviving fraction is 0.0463 in assay [1] (carboplatin co-treatment 0 µM), 0.663 in assay [1] (carboplatin co-treatment 5 µM), 0.604 in assay [2] (carboplatin co-treatment 0 µM) and -9.51 in assay [2] (carboplatin co-treatment 5 µM).

Take `O=C(CCNNC(=O)c1ccncc1)NCc1ccccc1` [Nialamide]: the log2 surviving fraction in assay [1] (carboplatin co-treatment 0 µM) was 0.0158; in assay [1] (carboplatin co-treatment 5 µM) it was -0.371; in assay [2] (carboplatin co-treatment 0 µM), -0.736; in assay [2] (carboplatin co-treatment 5 µM), -0.135.
